# Measurements published in the supplement of paper PMC6089552.
# Among all 3,200 compounds or so, about 300 (9.4%) showed activity. The entries are a selection whose mix differs from that of the whole data set.
# Tested on: A673/TR/shEF
# Experiment: cell viability (LOESS-normalised, relative to median of negative controls) (log2 ratio); higher = more viable cells (less compound effect), active = hit call of the paper (over 3 MAD below the median)
# Conditions: treatment time: 72 h
# Procedure, shortened: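 Viability of A673/TR/shEF Ewing sarcoma cells was determined by CellTiter-Glo luminescence. The cells, at 1,500 per well in 384-well plates, were grown with or without doxycycline from 24 h before compound addition to switch on EWS-FLI1 shRNA knockdown, then exposed for three days to library compounds at two or more concentrations or to DMSO controls. Signals were LOESS-corrected plate by plate, normalised to the negative-control median and log2-transformed.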
# [1] = 0.25 µM, library screen: screen2, EWS-FLI1 expression: high (no doxycycline)
# [2] = 0.25 µM, library screen: screen2, EWS-FLI1 expression: low (doxycycline-induced shRNA knockdown)
# [3] = 2.5 µM, library screen: screen2, EWS-FLI1 expression: high (no doxycycline)
# [4] = 2.5 µM, library screen: screen2, EWS-FLI1 expression: low (doxycycline-induced shRNA knockdown)
# [5] = 0.25 µM, library screen: screen1, EWS-FLI1 expression: high (no doxycycline)
# [6] = 0.25 µM, library screen: screen1, EWS-FLI1 expression: low (doxycycline-induced shRNA knockdown)
# [7] = 2.5 µM, library screen: screen1, EWS-FLI1 expression: high (no doxycycline)
# [8] = 2.5 µM, library screen: screen1, EWS-FLI1 expression: low (doxycycline-induced shRNA knockdown)
# [9] = 0.103 µM, library screen: screen3, EWS-FLI1 expression: high (no doxycycline)
# [10] = 0.103 µM, library screen: screen3, EWS-FLI1 expression: low (doxycycline-induced shRNA knockdown)
# [11] = 0.308 µM, library screen: screen3, EWS-FLI1 expression: high (no doxycycline)
# [12] = 0.308 µM, library screen: screen3, EWS-FLI1 expression: low (doxycycline-induced shRNA knockdown)
# [13] = 0.926 µM, library screen: screen3, EWS-FLI1 expression: high (no doxycycline)
# [14] = 0.926 µM, library screen: screen3, EWS-FLI1 expression: low (doxycycline-induced shRNA knockdown)
# [15] = 2.8 µM, library screen: screen3, EWS-FLI1 expression: high (no doxycycline)
# [16] = 2.8 µM, library screen: screen3, EWS-FLI1 expression: low (doxycycline-induced shRNA knockdown)
# [17] = 8.3 µM, library screen: screen3, EWS-FLI1 expression: high (no doxycycline)
# [18] = 8.3 µM, library screen: screen3, EWS-FLI1 expression: low (doxycycline-induced shRNA knockdown)
# [19] = 25 µM, library screen: screen3, EWS-FLI1 expression: high (no doxycycline)
# [20] = 25 µM, library screen: screen3, EWS-FLI1 expression: low (doxycycline-induced shRNA knockdown)
structure (smiles),measurement,setting,value
NC/C=C\C(=O)O,cell viability (log2),[1],inactive: 0.181
same,cell viability (log2),[2],inactive: 0.112
same,cell viability (log2),[3],inactive: 0.0617
same,cell viability (log2),[4],inactive: 0.109
C=C[C@@](C)(O)CCC1C(=C)CCC2[C@@](C)(CO)CCC[C@]12C (some centres undefined),cell viability (log2),[5],inactive: 0.118
same,cell viability (log2),[6],inactive: -0.0475
same,cell viability (log2),[7],inactive: 0.151
same,cell viability (log2),[8],inactive: -0.0116
CC12CCC(CC1=O)C2(C)C (centres undefined),cell viability (log2),[5],inactive: 0.0703
same,cell viability (log2),[6],inactive: 0.0317
same,cell viability (log2),[7],inactive: 0.141
same,cell viability (log2),[8],inactive: 0.0883
NC(N)=NC(=O)Cc1c(Cl)cccc1Cl,cell viability (log2),[1],inactive: 0.0785
same,cell viability (log2),[2],inactive: 0.0403
same,cell viability (log2),[3],inactive: 0.0739
same,cell viability (log2),[4],inactive: 0.0584
C[C@](N)(Cc1ccc(O)c(O)c1)C(=O)O,cell viability (log2),[5],inactive: 0.132
same,cell viability (log2),[6],inactive: 0.0321
same,cell viability (log2),[1],inactive: 0.097
same,cell viability (log2),[2],inactive: 0.0348
same,cell viability (log2),[7],inactive: 0.129
same,cell viability (log2),[8],inactive: 0.168
same,cell viability (log2),[3],inactive: 0.129
same,cell viability (log2),[4],inactive: 0.0838
c1cnc(N2CCN(Cc3ccc4c(c3)OCO4)CC2)nc1,cell viability (log2),[1],inactive: 0.227
same,cell viability (log2),[2],inactive: 0.158
same,cell viability (log2),[3],inactive: 0.183
same,cell viability (log2),[4],inactive: 0.107
C#CCCCCCCCCCCCC(O)CC(O)COC(C)=O.C=CCCCCCCCCCCCC(O)CC(O)COC(C)=O (centres undefined),cell viability (log2),[5],inactive: 0.0598
same,cell viability (log2),[6],inactive: 0.0749
same,cell viability (log2),[7],inactive: 0.108
same,cell viability (log2),[8],inactive: 0.0101
C=CC(C1=CC(=O)C(OC)=CC1=O)c1ccccc1 (centres undefined),cell viability (log2),[5],inactive: 0.0774
same,cell viability (log2),[6],inactive: 0.000535
same,cell viability (log2),[7],inactive: 0.158
same,cell viability (log2),[8],inactive: 0.101
COC(=O)c1cc(=O)c(O)c2c(O)c(O)ccc2c1,cell viability (log2),[5],inactive: 0.103
same,cell viability (log2),[6],inactive: 0.0315
same,cell viability (log2),[7],inactive: 0.145
same,cell viability (log2),[8],inactive: 0.0325
CCCCCCCCCC(=O)NC(CN1CCOCC1)C(O)c1ccccc1 (centres undefined),cell viability (log2),[1],active: -0.53
same,cell viability (log2),[2],active: -0.533
same,cell viability (log2),[3],active: -1.39
same,cell viability (log2),[4],active: -2.57
C/C(=C\CO)CCC[C@H](C)CCC[C@H](C)CCCC(C)C,cell viability (log2),[5],inactive: 0.0657
same,cell viability (log2),[6],inactive: 0.0273
same,cell viability (log2),[7],inactive: 0.135
same,cell viability (log2),[8],inactive: -0.104
Cc1c(O)c(C(=O)CC(C)C)c2oc3c(C(=O)CC(C)C)c(O)c(C)c(O)c3c2c1O,cell viability (log2),[5],inactive: 0.0407
same,cell viability (log2),[6],inactive: 0.0843
same,cell viability (log2),[7],inactive: 0.0935
same,cell viability (log2),[8],inactive: 0.0892
CC(C)C(=O)Oc1ccc(CO)cc1[C@H](CCN(C(C)C)C(C)C)c1ccccc1,cell viability (log2),[9],inactive: 0.0458
same,cell viability (log2),[10],inactive: 0.0263
same,cell viability (log2),[11],inactive: 0.0469
same,cell viability (log2),[12],inactive: 0.0512
same,cell viability (log2),[13],inactive: 0.0969
same,cell viability (log2),[14],inactive: 0.0713
same,cell viability (log2),[15],inactive: 0.0716
same,cell viability (log2),[16],inactive: 0.0429
same,cell viability (log2),[17],inactive: 0.0271
same,cell viability (log2),[18],inactive: 0.0627
same,cell viability (log2),[19],inactive: 0.0496
same,cell viability (log2),[20],inactive: 0.113
Cc1ccc(NC(=O)c2ccc(CN3CCN(C)CC3)cc2)cc1Nc1nccc(-c2cccnc2)n1,cell viability (log2),[19],active: -0.195
COc1cc2c(Nc3ccc(Br)cc3F)ncnc2cc1OCC1CCN(C)CC1,cell viability (log2),[9],inactive: -0.0043
same,cell viability (log2),[10],inactive: 0.0398
same,cell viability (log2),[11],inactive: -0.0447
same,cell viability (log2),[12],inactive: 0.068
same,cell viability (log2),[13],inactive: 0.0443
same,cell viability (log2),[14],inactive: 0.0503
same,cell viability (log2),[15],inactive: -0.0379
same,cell viability (log2),[16],inactive: 0.00456
same,cell viability (log2),[17],inactive: -0.00527
same,cell viability (log2),[18],inactive: -0.0123
same,cell viability (log2),[19],inactive: -0.0986
same,cell viability (log2),[20],inactive: -0.0825
CC(=O)O[C@H]1CC[C@@]2(C)C(C[C@@H](OC(C)=O)[C@]3(C)C2CC[C@@]2(C)[C@H](c4ccoc4)OC(=O)[C@H]4O[C@]423)C1(C)C (some centres undefined),cell viability (log2),[5],inactive: 0.0263
same,cell viability (log2),[6],inactive: 0.146
same,cell viability (log2),[7],inactive: 0.141
same,cell viability (log2),[8],inactive: 0.119
CCOC(=O)O[C@]1(C(=O)OCCl)CC[C@H]2[C@@H]3CCC4=CC(=O)C=C[C@]4(C)[C@H]3[C@@H](O)C[C@@]21C,cell viability (log2),[9],inactive: 0.0687
same,cell viability (log2),[10],inactive: 0.0505
same,cell viability (log2),[11],inactive: 0.0534
same,cell viability (log2),[12],inactive: 0.0845
same,cell viability (log2),[13],inactive: 0.0173
same,cell viability (log2),[14],inactive: 0.0991
same,cell viability (log2),[15],inactive: 0.0681
same,cell viability (log2),[16],inactive: 0.0622
same,cell viability (log2),[17],inactive: -0.00165
same,cell viability (log2),[18],inactive: 0.0868
same,cell viability (log2),[19],inactive: -0.04
same,cell viability (log2),[20],inactive: 0.0542
O=C(O)c1nc2cc(Cl)c(Cl)cc2[nH]c1=O,cell viability (log2),[5],inactive: 0.0263
same,cell viability (log2),[6],inactive: 0.026
same,cell viability (log2),[7],inactive: 0.0518
same,cell viability (log2),[8],inactive: 0.0707
Cn1c(=O)[nH]c2ncn(C)c2c1=O,cell viability (log2),[5],inactive: 0.132
same,cell viability (log2),[6],inactive: 0.0699
same,cell viability (log2),[1],inactive: 0.202
same,cell viability (log2),[2],inactive: 0.0661
same,cell viability (log2),[7],inactive: 0.148
same,cell viability (log2),[8],inactive: 0.0595
same,cell viability (log2),[3],inactive: 0.102
same,cell viability (log2),[4],inactive: 0.106
NC(C(=O)O)C1CC(Cl)=NO1 (centres undefined),cell viability (log2),[5],inactive: 0.0957
same,cell viability (log2),[6],inactive: -0.0918
same,cell viability (log2),[7],inactive: 0.151
same,cell viability (log2),[8],inactive: 0.103
C1COC(NC(C2CC2)C2CC2)=N1,cell viability (log2),[1],inactive: 0.233
same,cell viability (log2),[2],inactive: 0.156
same,cell viability (log2),[3],inactive: 0.202
same,cell viability (log2),[4],inactive: 0.117
Cc1cc(C(C)(C)C)c(O)c(C(C)(C)C)c1,cell viability (log2),[5],inactive: 0.159
same,cell viability (log2),[6],inactive: 0.0822
same,cell viability (log2),[7],inactive: 0.153
same,cell viability (log2),[8],inactive: 0.182
CN/C(=C\[N+](=O)[O-])NCCSCc1ccc(CN(C)C)o1,cell viability (log2),[9],inactive: 0.0502
same,cell viability (log2),[10],inactive: 0.0103
same,cell viability (log2),[5],inactive: 0.088
same,cell viability (log2),[6],inactive: 0.0512
same,cell viability (log2),[1],inactive: 0.152
same,cell viability (log2),[2],inactive: 0.0357
same,cell viability (log2),[11],inactive: 0.129
same,cell viability (log2),[12],inactive: 0.0395
same,cell viability (log2),[13],inactive: 0.0665
same,cell viability (log2),[14],inactive: 0.0631
same,cell viability (log2),[7],inactive: 0.0941
same,cell viability (log2),[8],inactive: 0.00845
same,cell viability (log2),[3],inactive: 0.147
same,cell viability (log2),[4],inactive: 0.0931
same,cell viability (log2),[15],inactive: 0.0761
same,cell viability (log2),[16],inactive: 0.132
same,cell viability (log2),[17],inactive: 0.0612
same,cell viability (log2),[18],inactive: 0.0932
same,cell viability (log2),[19],inactive: 0.104
same,cell viability (log2),[20],inactive: 0.0542
O=C(O)c1cn(C2CC2)c2cc(N3CCNCC3)c(F)cc2c1=O,cell viability (log2),[5],inactive: 0.1
same,cell viability (log2),[6],inactive: 0.159
same,cell viability (log2),[7],inactive: 0.142
same,cell viability (log2),[8],inactive: 0.0926
CCCn1c(=O)[nH]c(=O)c2[nH]cnc21,cell viability (log2),[1],inactive: 0.233
same,cell viability (log2),[2],inactive: 0.106
same,cell viability (log2),[3],inactive: 0.119
same,cell viability (log2),[4],inactive: 0.055
COC(=O)Nc1nc2ccc(Sc3ccccc3)cc2[nH]1,cell viability (log2),"0.025 µM, library screen: screen2, EWS-FLI1 expression: high (no doxycycline)",inactive: 0.076
same,cell viability (log2),"0.025 µM, library screen: screen2, EWS-FLI1 expression: low (doxycycline-induced shRNA knockdown)",inactive: 0.0311
same,cell viability (log2),[9],inactive: 0.039
same,cell viability (log2),[10],inactive: 0.0842
same,cell viability (log2),[5],inactive: 0.0605
same,cell viability (log2),[6],inactive: 0.108
same,cell viability (log2),[1],inactive: 0.237
same,cell viability (log2),[2],inactive: 0.0195
same,cell viability (log2),[11],inactive: 0.0857
same,cell viability (log2),[12],inactive: 0.103
same,cell viability (log2),[13],inactive: 0.0228
same,cell viability (log2),[14],inactive: 0.0229
same,cell viability (log2),[7],inactive: 0.101
same,cell viability (log2),[8],inactive: 0.0874
same,cell viability (log2),[3],inactive: 0.103
same,cell viability (log2),[4],inactive: 0.0543
same,cell viability (log2),[15],active: -0.667
same,cell viability (log2),[16],inactive: -0.0556
same,cell viability (log2),[17],active: -1.42
same,cell viability (log2),[18],active: -0.611
same,cell viability (log2),"25 µM, library screen: screen2, EWS-FLI1 expression: high (no doxycycline)",active: -2.26
same,cell viability (log2),"25 µM, library screen: screen2, EWS-FLI1 expression: low (doxycycline-induced shRNA knockdown)",active: -0.937
same,cell viability (log2),[19],active: -1.77
same,cell viability (log2),[20],active: -0.629
